Measured values published in the supplement of paper PMC11880418.
Structures can show the parent of a compound that is named as a salt. The list shows a part of the results. The data scatter; read single values as rough.

Experiments:
Test in all cases: ALDHbr (CSC) cell proportion score relative to DMSO vehicle (ratio to DMSO); breast (SUM159) / gastric (MKN45) / pancreatic (PANC1) / colon cancer lines; ALDHbr cells have high ALDH activity and are rich in cancer stem cells (CSC); higher = more CSC (ALDHbr) cells remaining
Conditions in all cases: 10 µM; 72 h
MKN45 = tested on: MKN45
PANC1 = tested on: PANC1
SUM159 = tested on: SUM159
T84 = tested on: T84
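Further: High-content imaging of ALDEFLUOR-stained cells with Hoechst-labelled nuclei in 384-well plates, triplicate wells, scored as Z-score against 0.1% DMSO vehicle, negative meaning fewer ALDHbr cells.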

Row | SMILES | ALDHbr (MKN45) | ALDHbr (PANC1) | ALDHbr (SUM159) | ALDHbr (T84)
1 | C[C@H](CCC(=O)O)[C@H]1CC[C@H]2[C@@H]3[C@@H](O)C[C@@H]4C[C@H](O)CC[C@]4(C)[C@H]3CC[C@]12C [Urosiol] | 1.03 | 0.857 | 0.976 | 0.988
2 | CC(=O)O[C@]1(C(C)=O)CC[C@H]2[C@@H]3C=C(Cl)C4=CC(=O)[C@@H]5C[C@@H]5[C@]4(C)[C@H]3CC[C@@]21C [Cyproterone acetate] | 0.684 | 0.75 | 0.768 | 0.984
3 | COc1ccc(CN(CCN(C)C)c2ccccn2)cc1 [Pyrilamine maleate] | 1.02 | 0.831 | 0.868 | 0.922
4 | COCCOC(=O)C1=C(C)NC(C)=C(C(=O)OC/C=C/c2ccccc2)C1c1cccc([N+](=O)[O-])c1 (configuration not stated) [Cilnidipine] | 1.29 | 0.736 | 0.76 | 1.28
5 | CC[C@H]1OC(=O)[C@H](C)[C@@H](O[C@H]2C[C@@](C)(OC)[C@@H](O)[C@H](C)O2)[C@H](C)[C@@H](O[C@@H]2O[C@H](C)C[C@H](N(C)C)[C@H]2O)[C@](C)(O)C[C@@H](C)C(=O)[C@H](C)[C@@H](O)[C@]1(C)O [Erythromycin] | 1.14 | 1.48 | 1.05 | 1.06
6 | Cc1cc(C)nc(NS(=O)(=O)c2ccc(N)cc2)n1 [Sulfamethazine sodium salt] | 0.994 | 0.952 | 1.37 | 0.727
7 | Nc1nc(NC2CC2)c2ncn([C@H]3C=C[C@@H](CO)C3)c2n1 [Abacavir Sulfate] | 0.955 | 0.908 | 1.24 | 0.906
8 | CC(C)(C)NC[C@@H](O)COc1cccc2c1CCCC2=O [(+) -Levobunolol hydrochloride] | 1.05 | 0.792 | 0.999 | 1.08
